# The supplement of paper PMC8728848
# The other results are listed elsewhere or left out.
# How the values were obtained:
# Assay in all cases: glycan array binding signal (z-score within array); higher = stronger binding
# Details in all cases: glycan notation: IUPAC condensed, linker removed
# [1] = target: Neu5Ac(a2-6)Gal(b1-4)GlcNAc(b1-2)Man(a1-3)[Neu5Ac(a2-3)Gal(b1-4)GlcNAc(b1-2)Man(a1-6)]Man(b1-4)GlcNAc(b1-4)GlcNAc
# Procedure, shortened: (§1)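 Columns mapping to the same glycan were averaged after glycan names were converted to IUPAC-condensed notation. The data come from 3228 arrays in the Consortium for Functional Glycomics database, limited to those with an available protein sequence. Binding is reported as a within-array Z-score averaged across arrays of one protein sequence and across linkers.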
# [2] = target: Neu5Ac(a2-6)Gal(b1-4)GlcNAc(b1-2)Man(a1-3)[Neu5Ac(a2-6)Gal(b1-4)GlcNAc(b1-2)Man(a1-6)]Man(b1-4)GlcNAc(b1-4)GlcNAc
# Procedure, shortened: as §1
# [3] = target: Neu5Ac(a2-6)Gal(b1-4)GlcNAc(b1-2)Man(a1-3)[Neu5Ac(a2-6)Gal(b1-4)GlcNAc(b1-2)Man(a1-6)]Man(b1-4)GlcNAc(b1-4)[Fuc(a1-6)]GlcNAc
# Procedure, shortened: as §1
# [4] = target: Neu5Ac(a2-6)Gal(b1-4)GlcNAc(b1-2)Man(a1-6)Man(b1-4)GlcNAc(b1-4)GlcNAc
# Procedure, shortened: as §1
# [5] = target: Neu5Ac(a2-6)Gal(b1-4)GlcNAc(b1-2)Man(a1-6)[Gal(b1-4)GlcNAc(b1-2)Man(a1-3)]Man(b1-4)GlcNAc(b1-4)GlcNAc
# Procedure, shortened: as §1
# [6] = target: Neu5Ac(a2-6)Gal(b1-4)GlcNAc(b1-2)Man(a1-6)[GlcNAc(b1-2)Man(a1-3)]Man(b1-4)GlcNAc(b1-4)GlcNAc
# Procedure, shortened: as §1
# [7] = target: Neu5Ac(a2-6)Gal(b1-4)GlcNAc(b1-2)Man(a1-6)[Man(a1-3)]Man(b1-4)GlcNAc(b1-4)GlcNAc
# Procedure, shortened: as §1
# [8] = target: Neu5Ac(a2-6)Gal(b1-4)GlcNAc(b1-2)[Neu5Ac(a2-6)Gal(b1-4)GlcNAc(b1-4)]Man(a1-3)[GlcNAc(b1-4)][Neu5Ac(a2-6)Gal(b1-4)GlcNAc(b1-2)[Neu5Ac(a2-6)Gal(b1-4)GlcNAc(b1-6)]Man(a1-6)]Man(b1-4)GlcNAc(b1-4)GlcNAc
# Procedure, shortened: as §1
# [9] = target: Neu5Ac(a2-6)Gal(b1-4)GlcNAc(b1-2)[Neu5Ac(a2-6)Gal(b1-4)GlcNAc(b1-4)]Man(a1-3)[GlcNAc(b1-4)][Neu5Ac(a2-6)Gal(b1-4)GlcNAc(b1-4)Man(a1-6)]Man(b1-4)GlcNAc(b1-4)GlcNAc
# Procedure, shortened: as §1
# [10] = target: Neu5Ac(a2-6)Gal(b1-4)GlcNAc(b1-2)[Neu5Ac(a2-6)Gal(b1-4)GlcNAc(b1-6)]Man(a1-6)[Neu5Ac(a2-6)Gal(b1-4)GlcNAc(b1-2)Man(a1-3)][GlcNAc(b1-4)]Man(b1-4)GlcNAc(b1-4)GlcNAc
# Procedure, shortened: as §1
# [11] = target: Neu5Ac(a2-6)Gal(b1-4)GlcNAc(b1-3)Gal(b1-3)GlcNAc
# Procedure, shortened: as §1
# [12] = target: Neu5Ac(a2-6)Gal(b1-4)GlcNAc(b1-3)Gal(b1-4)GlcNAc
# Procedure, shortened: as §1
# [13] = target: Neu5Ac(a2-6)Gal(b1-4)GlcNAc(b1-3)Gal(b1-4)GlcNAc(b1-2)Man(a1-3)[Neu5Ac(a2-6)Gal(b1-4)GlcNAc(b1-3)Gal(b1-4)GlcNAc(b1-2)Man(a1-6)]GalNAc
# Procedure, shortened: as §1
# [14] = target: Neu5Ac(a2-6)Gal(b1-4)GlcNAc(b1-3)Gal(b1-4)GlcNAc(b1-3)Gal(b1-4)GlcNAc
# Procedure, shortened: as §1
# [15] = target: Neu5Ac(a2-6)Gal(b1-4)GlcNAc(b1-3)Gal(b1-4)GlcNAc(b1-3)Gal(b1-4)GlcNAc(b1-2)Man(a1-3)[Neu5Ac(a2-6)Gal(b1-4)GlcNAc(b1-3)Gal(b1-4)GlcNAc(b1-3)Gal(b1-4)GlcNAc(b1-2)Man(a1-6)]GalNAc
# Procedure, shortened: as §1
# [16] = target: Neu5Ac(a2-6)Gal(b1-4)GlcNAc(b1-3)Gal(b1-4)GlcNAc(b1-3)GalNAc
# Procedure, shortened: as §1
# [17] = target: Neu5Ac(a2-6)Gal(b1-4)GlcNAc(b1-3)Gal(b1-4)GlcNAc(b1-3)[Neu5Ac(a2-6)Gal(b1-4)GlcNAc(b1-3)Gal(b1-4)GlcNAc(b1-6)]GalNAc
# Procedure, shortened: as §1
# [18] = target: Neu5Ac(a2-6)Gal(b1-4)GlcNAc(b1-3)Gal(b1-4)GlcNAc(b1-6)[Gal(b1-3)]GalNAc
# Procedure, shortened: as §1
# [19] = target: Neu5Ac(a2-6)Gal(b1-4)GlcNAc(b1-3)Gal(b1-4)[Fuc(a1-3)]GlcNAc(b1-3)Gal(b1-4)[Fuc(a1-3)]GlcNAc
# Procedure, shortened: as §1
# [20] = target: Neu5Ac(a2-6)Gal(b1-4)GlcNAc(b1-3)GalNAc
# Procedure, shortened: as §1
# [21] = target: Neu5Ac(a2-6)Gal(b1-4)GlcNAc(b1-3)[Neu5Ac(a2-6)Gal(b1-4)GlcNAc(b1-6)]GalNAc
# Procedure, shortened: as §1
# [22] = target: Neu5Ac(a2-6)Gal(b1-4)GlcNAc(b1-6)GalNAc
# Procedure, shortened: as §1
# [23] = target: Neu5Ac(a2-6)Gal(b1-4)GlcNAc(b1-6)[Gal(b1-3)GlcNAc(b1-3)]Gal(b1-4)Glc
# Procedure, shortened: as §1
# [24] = target: Neu5Ac(a2-6)Gal(b1-4)GlcNAc(b1-6)[Gal(b1-3)]GalNAc
# Procedure, shortened: as §1
# [25] = target: Neu5Ac(a2-6)Gal(b1-4)GlcNAc6S
# Procedure, shortened: as §1
# Neu5Ac(a2-6)GalNAc = target: Neu5Ac(a2-6)GalNAc
# Procedure, shortened: as §1
# [26] = target: Neu5Ac(a2-6)GalNAc(b1-4)GlcNAc
# Procedure, shortened: as §1
# [27] = target: Neu5Ac(a2-6)GalNAc(b1-4)GlcNAc6S
# Procedure, shortened: as §1
# [28] = target: Neu5Ac(a2-6)GlcNAc(b1-4)GlcNAc
# Procedure, shortened: as §1
# [29] = target: Neu5Ac(a2-6)GlcNAc(b1-4)GlcNAc(b1-4)GlcNAc
# Procedure, shortened: as §1
binder,measurement,setting,value
ClecSol-Fc (Cryptosporidium parvum) (protein) CPEGWISNGEKTRCFKLVTFDRPRTFSHGFKACNDLGGTEVETRRRNGSKETNEYPVTLASVYKLSDEEAIRRTLVEQGDIHKTANGCFVGLRKYAFFRYPPGWYWIDSGSPVSVRDSEINWTSSYNASWLLRFKFPFEKCGFFDIGGLGRRPCWLIDSELSCAVCGTVAYDSGGLNPNKYSELIKQTDEIISKEPKLDLPGYNNLNCTDAWENNLSVGLCQNVSNILDSAWSSYQSSLNFPSINFNWKEDSTNEGGDQVYHNSYLDLPRYKQKKTFYWDQDPGTIPALSDEMKLIGLSAQPTYHPLDRSSSGSFESDSTESGRANEERNDTLEEMIYKQSSDSIEDILVPVTKPIFSDYSSIGRNSGVEEVYSSNVSTISSKGVVFPNTTTSSDNDFTKNNPANSSKHTSTSTTTNTTTTTTRTTTTTTTTTTTTTTTTTTTTETTTTKKSTTATKNTTTT,glycan array binding signal (z-score),[1],-0.203
same,glycan array binding signal (z-score),[2],-0.172
same,glycan array binding signal (z-score),[3],-0.136
same,glycan array binding signal (z-score),[4],-0.1
same,glycan array binding signal (z-score),[5],-0.095
same,glycan array binding signal (z-score),[6],-0.302
same,glycan array binding signal (z-score),[7],-0.177
same,glycan array binding signal (z-score),[8],-0.129
same,glycan array binding signal (z-score),[9],-0.067
same,glycan array binding signal (z-score),[10],-0.083
same,glycan array binding signal (z-score),[11],-0.002
same,glycan array binding signal (z-score),[12],0.051
same,glycan array binding signal (z-score),[13],-0.02
same,glycan array binding signal (z-score),[14],-0.218
same,glycan array binding signal (z-score),[15],-0.139
same,glycan array binding signal (z-score),[16],-0.226
same,glycan array binding signal (z-score),[17],-0.146
same,glycan array binding signal (z-score),[18],-0.191
same,glycan array binding signal (z-score),[19],-0.036
same,glycan array binding signal (z-score),[20],-0.234
same,glycan array binding signal (z-score),[21],-0.216
same,glycan array binding signal (z-score),[22],-0.052
same,glycan array binding signal (z-score),[23],0.096
same,glycan array binding signal (z-score),[24],-0.084
same,glycan array binding signal (z-score),[25],-0.175
same,glycan array binding signal (z-score),Neu5Ac(a2-6)GalNAc,-0.056
same,glycan array binding signal (z-score),[26],-0.235
same,glycan array binding signal (z-score),[27],-0.03
same,glycan array binding signal (z-score),[28],0.038
same,glycan array binding signal (z-score),[29],-0.056
